The text below walks through data of PubChem BioAssay AID488969 (Vanderbilt High Throughput Screening Facility, 2010).

The structures appear in SMILES notation. Whole data set: some 110,000 compounds, median “z-score” near -0.1, cut for the highest 2% near 2. Some of the results follow. Calls of active or inactive are those of the source.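 How the source made its calls: active means z-score in the third read window above 3 or below -3; inactive means the rest.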

The assay concerns the target Metabotropic glutamate receptor 8 (Rattus norvegicus) (UniProt P70579). The experiment in a line: mGluR8 Gi/Go-coupled signaling modulation – cell-based, rat, thallium flux, HTS, primary screen (AID 488969). The following applies: HEK293 rat mGluR8, GIRK (G protein-gated inwardly rectifying potassium channel) thallium flux, FluoZin2; at 10 µM; stronger effect = higher value; submaximal glutamate (EC20) added with thallium.
UniProt P70579, sequence (P70579 whole entry, looked up): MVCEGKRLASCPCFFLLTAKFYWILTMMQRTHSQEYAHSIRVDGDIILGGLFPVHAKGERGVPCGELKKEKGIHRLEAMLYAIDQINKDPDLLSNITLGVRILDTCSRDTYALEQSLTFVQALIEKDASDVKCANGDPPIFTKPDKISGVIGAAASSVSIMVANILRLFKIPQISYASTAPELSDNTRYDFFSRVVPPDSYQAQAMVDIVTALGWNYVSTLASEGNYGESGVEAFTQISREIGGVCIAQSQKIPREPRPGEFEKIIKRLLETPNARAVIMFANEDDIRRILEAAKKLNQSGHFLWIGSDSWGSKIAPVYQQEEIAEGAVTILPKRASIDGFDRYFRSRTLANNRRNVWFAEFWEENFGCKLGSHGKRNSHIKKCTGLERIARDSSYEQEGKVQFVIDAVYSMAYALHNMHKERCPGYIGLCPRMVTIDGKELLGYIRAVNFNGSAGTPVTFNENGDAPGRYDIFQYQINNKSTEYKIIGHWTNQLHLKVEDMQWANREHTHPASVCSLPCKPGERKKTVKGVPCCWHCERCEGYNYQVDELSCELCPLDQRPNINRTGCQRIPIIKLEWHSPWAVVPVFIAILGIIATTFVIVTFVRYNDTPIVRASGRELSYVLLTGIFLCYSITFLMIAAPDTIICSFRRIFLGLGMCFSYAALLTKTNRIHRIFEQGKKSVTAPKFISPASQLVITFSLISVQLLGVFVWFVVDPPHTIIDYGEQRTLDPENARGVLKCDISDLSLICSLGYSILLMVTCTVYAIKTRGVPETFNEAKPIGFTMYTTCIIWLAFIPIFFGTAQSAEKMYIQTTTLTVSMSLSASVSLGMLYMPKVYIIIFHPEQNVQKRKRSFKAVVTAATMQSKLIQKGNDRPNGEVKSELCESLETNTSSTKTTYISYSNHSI
`Nc1c(C(=O)NCc2ccc3c(c2)OCO3)c2nc3ccccc3nc2n1CCCN1CCOCC1`: the z-score is -0.129.

Regarding `O=C(c1ccc(S(=O)(=O)NCC2CCCO2)cc1)N1CCc2ccccc21` (stereo not given), the z-score was -0.235.

With `CCCN1CCN(C(c2cc3cc(OCC)ccc3[nH]c2=O)c2nnnn2C2CCCCC2)CC1` (stereo not given), the z-score worked out at 1.03.

As for `CCOC(=O)c1c(/N=C/C2C(=O)CC(C)(C)CC2=O)sc(C)c1C`, the z-score was -0.243.

Turning to `COc1ccc(C2c3c(oc4ccccc4c3=O)C(=O)N2Cc2ccncc2)cc1OC` (stereo not given), the z-score was -0.203.

Regarding `CCN(CC)CCCNC(=O)c1cc(-c2ccc(O)cc2)on1`, the z-score turned out to be 0.686.

`C=C(C)CSc1nc(N)c(C#N)c(-c2ccc(C)cc2)c1C#N` had a z-score of -0.338.

As to `COC(=O)c1c(NC(=O)CSc2nnc(CNc3ccc(Cl)cc3)o2)sc(C)c1C`, the z-score is 0.279.

The compound `CCCNC(=O)c1ccc(OC)cc1OC` yielded a z-score of -0.218.

For the compound `O=C(CN1CCN(c2ccccc2F)CC1)Nc1ccc2c(c1)CCC2`, the z-score was 0.206.

In turn, `Cc1ccc(-c2n[nH]c(=S)n2C)cc1` yielded a z-score of 0.774.

`C=C(c1ccc(OC)cc1)c1ccc(OC)cc1` gave a z-score of 0.871.

Regarding `Cc1ccc(C)c(S(=O)(=O)NCCCn2ccnc2)c1`, the z-score is -0.00334.

As to `Cc1ccc(OCC(=O)NNC(=O)c2ccoc2C)c(Br)c1`, the z-score amounted to 0.768.

For the compound `CCOC(=O)CSc1c(-c2ccc(Cl)cc2)[nH]c2ccccc12`, the z-score worked out at 0.0738.

The compound `CCC(=O)Nc1ccc(NC(=O)CSc2nnnn2-c2cccnc2)cc1C` came in with a z-score of 0.513.

Compound `CC(=O)c1cccc(NS(=O)(=O)c2ccc(N/C=C\C(=O)c3ccc(C)cc3)cc2)c1` yielded a z-score of -0.19.

Turning to `CC(C)C(=O)Nc1ccc(C(=O)NNC(=S)NC(=O)c2cccs2)cc1`, the z-score was -0.129.

`CCn1c(SCC(=O)N2CCCC(C)C2)nnc1-c1ccc(S(=O)(=O)N2CCN(C)CC2)cc1` (stereo not given) gave a z-score of -0.338.

As for `O=C(c1ccc(C(=O)N2CCOCC2)s1)N1CCOCC1`, the z-score is -0.597.

As for `CC1=CC(C)(C)N(C(=O)CSc2nnc(-c3ccc(C)cc3)o2)c2ccc(C)cc21`, the z-score is -0.223.

The compound `Clc1ccc(-c2nnc(-c3ccccc3)c(N3CCSCC3)n2)cc1` registered a z-score of -0.125.

In turn, `CCOC(=O)N1CCN(c2ccc(C(=O)c3cccc(F)c3)cc2)CC1` showed a z-score of 0.406.

With `Cc1ccc(CSCC(=O)NN=C2CCN(C)CC2)cc1`, the z-score is -0.00381.

In turn, `Cc1ccccc1OCc1nc(-c2ccc(NC(=O)c3ccco3)cc2)no1` showed a z-score of 0.102.

As to `CCCn1nc(NC(=O)c2ccccn2)c2cc3cc(C)ccc3nc21`, the z-score is -0.118.

Turning to `CC(C)OP(=O)(c1ccc(N(C)C)cc1)C(O)c1c(Cl)cccc1Cl` (stereo not given), the z-score turned out to be 0.0683.

As to `Cc1ccc(Cn2cc(S(=O)(=O)c3ccc(C(C)C)cc3)c(=O)c3cc4c(cc32)OCO4)cc1`, the z-score was -0.14.

For the compound `N#CC1=C(N)N(c2ccccc2)C2=C(C(=O)CCC2)C1c1ccccc1` (stereo not given), the z-score was -0.829.

In the case of `Cc1cc(C(=O)Nn2cnnc2)cs1`, the z-score is -0.0967.

In the case of `COC(=O)Nc1ccc(S(=O)(=O)N2CCCC(C(=O)Nc3cccnc3)C2)cc1` (stereo not given), the z-score is -0.145.

Regarding `CNc1nc(Sc2ccccc2)cc(C(F)(F)F)n1`, the z-score is -0.198.

For `Cc1cnc(-c2nnc(N(C)C(=O)C3CCOC3)s2)cn1` (stereo not given), the z-score was -0.337.

`CNC(=O)c1csc(-c2ccccc2)n1` displayed a z-score of -0.0403.

Consider `O=C(N/N=C\c1ccc(CNS(=O)(=O)c2ccc(Cl)cc2)o1)C(=O)Nc1ccc(Oc2ccccc2)cc1`, for which the z-score was -0.00241.

`CCOc1ccc(NC(=O)CSc2nnc(COc3c(C)cccc3C)o2)cc1`: the z-score is -0.0696.

With `CCC(C)(C)NC(=O)c1ccc(Br)o1`, the z-score is -0.122.

`COc1ccc(C(CC(=O)Nc2cc([N+](=O)[O-])ccc2OC)c2ccccc2)cc1` (stereo not given): the z-score is -0.424.

On to `O=C(Nc1ccccc1)OC1C2CCC1C(N1CCCCC1)CC2` (stereo not given), for which the z-score was found to be 0.741.

Regarding `COc1ccc(-c2noc(CSc3nnc(Cc4ccccc4)n3-c3cccc(C)c3)n2)cc1OC`, the z-score turned out to be 0.642.

In turn, `Cc1noc(C)c1S(=O)(=O)Nc1ccc(C(=O)NCc2ccccc2)cc1` returned a z-score of 0.00682.

The compound `COc1cc(C=O)ccc1OCCCOc1ccc([N+](=O)[O-])cc1` registered a z-score of -0.12.

For `COc1cccc(NC(=O)C2CC(=O)n3cnnc3S2)c1` (stereo not given), the z-score was 0.794.

The compound `COC(=O)Nc1ccc(S(=O)(=O)n2cnc3ccccc32)cc1` registered a z-score of 1.02.

Compound `CC1(C)CC(=O)C(C=NCC2CCN(C(=O)Nc3ccc(Cl)c(Cl)c3)CC2)=C(O)C1` showed a z-score of -0.0391.

For `CC1(C)Cc2c(sc3ncnc(N)c23)CO1`, the z-score was 0.0601.

Regarding `O=C1c2ccsc2SCCN1Cc1ccc(Cl)cc1`, the z-score is -0.992.

As to `Cc1ccc(C(C2=C(O)CC(C)(C)CC2=O)C2C(=O)CC(C)(C)CC2=O)s1` (stereo not given), the z-score is -0.265.

The compound `CC(=O)c1c(C)[nH]c(C(=O)COC(=O)c2ccc3c(=O)n4c(nc3c2)CCC4)c1C` displayed a z-score of 0.28.

On to `O=C(Nc1nc(-c2ccc(-c3ccccc3)cc2)cs1)C1=COCCO1`, for which the z-score came to 0.163.

`O=c1c(-c2nnc(SCc3ccc(Cl)cc3Cl)o2)cccn1Cc1ccccc1` registered a z-score of -0.0583.

Compound `CCCCn1c(=O)c(-[n+]2ccccc2)c([O-])c2ccccc21` yielded a z-score of -0.0372.

Compound `Cc1ccc(-c2nn(C)c(=O)c3ccccc23)cc1S(=O)(=O)N1CCOCC1` gave a z-score of -0.489.

Compound `COc1ccc(CCNC(=O)c2cc(S(=O)(=O)N(C)c3ccccc3)ccc2Cl)cc1` came in with a z-score of -0.215.

`COc1ccc(N=Cc2c(O)[nH]c3ccccc23)cc1` returned a z-score of 0.0644.

In the case of `COc1cc(NC(=S)NC(=O)c2ccccc2C)ccc1NC(=O)c1cccs1`, the z-score was -0.0395.

`CC(=O)c1ccccc1NC(=O)CSc1nnc2ccccn12` yielded a z-score of -0.019.

Regarding `O=C(O/N=C1/CCSc2ccccc21)c1ccccc1`, the z-score is -0.25.

In turn, `O=C(NCCN1CCN(c2ccccc2F)CC1)C1CCCN(S(=O)(=O)c2cnc[nH]2)C1` (stereo not given) returned a z-score of 0.0568.

`COc1ccc(-c2n[nH]c(=S)n2Cc2ccco2)cc1` had a z-score of 0.75.

Take `CCC(C)NC(=O)c1[nH]c(C)c(C(=O)OC)c1C` (stereo not given): the z-score was 0.74.

The compound `CC1(C)N=C(/C=N/O)C=[N+]1[O-]` had a z-score of 0.315.

As to `COc1ccc(OC)c(N(CC(=O)Nc2ccccc2C(=O)NCc2ccco2)S(C)(=O)=O)c1`, the z-score is -0.0286.

On to `O=C(Nc1ccc(O)c(-c2nc3ccccc3o2)c1)C1(c2ccccc2)CCCC1`, for which the z-score is -0.12.

`COc1ccccc1OCC(=O)NNC(=S)NC(=O)c1ccco1`: the z-score amounted to 0.0517.

For `COc1ccc(C(=O)c2ccc(CC#N)s2)cc1`, the z-score was -0.0619.

In turn, `CC1(C)CC2(CCCN3C(=O)CSC32)CCS1` (stereo not given) yielded a z-score of 0.0173.

Turning to `O=C(COc1ccc2ccccc2c1)N1CCN(c2ccccc2O)CC1`, the z-score was -0.302.

The compound `CCOc1ccc(C2=Nn3c(nnc3-c3ccco3)SC2)cc1` returned a z-score of -0.274.

For `O=C(c1cccs1)N1CCOCC1`, the z-score is 0.243.

Compound `N#C/C(=N\Nc1ccc(F)cc1)C(=N)N1CCCCC1` showed a z-score of -0.376.

In turn, `Cc1c(NS(=O)(=O)c2ccc3c(c2)n(C)c(=O)n3C)c(=O)n(-c2ccccc2)n1C` returned a z-score of -0.339.

`O=C(C[n+]1ccc(C(=O)N/N=C/c2ccc(OCc3ccccc3)cc2)cc1)c1ccccc1` came in with a z-score of -0.252.

The compound `COc1ccc(OC)c2[nH]c(C(=O)O)cc12` came in with a z-score of 0.861.

On to `CCOc1ccc2c(C)c(Cl)c(=O)oc2c1`, for which the z-score was -0.382.

Consider `COc1ccc(C(=O)Nc2nc3c(s2)CCCC3)cc1S(=O)(=O)N1CCCc2ccccc21`, for which the z-score was -0.123.

Take `O=C(CSc1ncnc2c1cnn2-c1ccccc1Cl)N1CCN(C(=O)c2ccco2)CC1`: the z-score is -0.9.

As to `COc1ccccc1N(C)S(=O)(=O)c1ccc(C(=O)N2CCC(C(N)=O)CC2)cc1`, the z-score was -0.147.

`O=C(O)CCCC(=O)Nc1ccc(Br)cc1` showed a z-score of 0.0741.

Consider `Cn1nc(CC(=O)N2CCN(c3ccccc3)CC2)c2ccccc2c1=O`, for which the z-score worked out at 0.246.

Compound `CCOC(=O)C1=NNC2C(=O)N(CC)C(=O)C12` (stereo not given) returned a z-score of 0.457.

`Nc1nc(-c2ccc(Cl)cc2)cc(C(F)(F)F)n1` registered a z-score of -0.248.

As to `O=C1CCCC2=C1C(c1ccccc1)CC(=O)N2c1ccccc1` (stereo not given), the z-score is -0.00614.

Regarding `COCCN(C(=O)C(C)C)c1nnc(-c2cccc(C)c2)s1`, the z-score came out at 0.914.

In turn, `O=C(COc1ccccc1)NC1CCN(Cc2ccccc2)CC1` yielded a z-score of -0.351.

In turn, `CCCSc1nnc(Sc2nnnn2-c2ccccc2)s1` returned a z-score of 1.05.

`CCNCc1cc(OCC)c(OCC(=O)NCCc2ccccc2)cc1Cl` displayed a z-score of 0.21.

Take `S=C(Nc1ccccc1)Nc1ccc(OCc2ccccc2)cc1`: the z-score was -0.0124.

`COc1cccc(NS(=O)(=O)c2cc(C)sc2C)c1` gave a z-score of -0.166.

Compound `COc1cc(NC(=O)C2CCCCN2)ccc1OCC(C)C` (stereo not given) displayed a z-score of 0.424.

As to `Cc1ccc(C(=O)OCCc2c(C)[nH]n(-c3ccccc3)c2=O)cc1`, the z-score was -0.419.

In turn, `CCOC(=O)C(CC)Sc1nc(N)c(NC(=O)c2ccc(OC)c(OC)c2)c(=O)[nH]1` (stereo not given) returned a z-score of 0.132.

In turn, `O=C(Nc1nnc(SCc2ccc(F)cc2)s1)c1ccc2ncsc2c1` displayed a z-score of 0.249.

For the compound `COc1ccc(C(=O)Nc2ccc(OCC(F)(F)C(F)F)c(C(F)(F)F)c2)cc1OC`, the z-score was -0.17.

Turning to `CCOc1ccc(N(CC(=O)NC2CCCC2)S(=O)(=O)c2c(C)[nH]c(=O)[nH]c2=O)cc1`, the z-score is -0.16.

Compound `COCCn1c(C)cc(C(=O)CSc2nc(C)cc(C)c2C#N)c1C` returned a z-score of -1.5.

Compound `CN1/C(=C\C(=O)Nc2ccc(Cl)cc2)C(C)(C)c2ccccc21` displayed a z-score of 0.0314.

The compound `O=C(CSc1nc2ccccc2o1)NC(=O)NCc1ccccc1` gave a z-score of -0.144.

The compound `COC(=O)C1C2C=CC(C3CC23)C1C(=O)OCC(=O)c1ccccc1` (stereo not given) came in with a z-score of -0.181.

`Cc1ccccc1C(=O)NCCc1nnc(SCC(=O)Nc2nc(-c3ccccc3)cs2)n1C`: the z-score came out at 0.0767.

In turn, `C/C(=N\NC(=O)C1COc2ccccc2O1)c1ccc(C)o1` (stereo not given) showed a z-score of -0.0164.

Take `O=C(CSc1nnc(Cc2ccccc2)n1C1CCCCC1)N1CCOCC1`: the z-score is -0.193.

The compound `Cc1cccc(C)c1OCC(=O)OCC(=O)c1ccc2c(c1)NC(=O)CO2` registered a z-score of -0.0701.

Consider `CN1CCC(=NNC(=O)c2ccco2)CC1`, for which the z-score came out at 0.08.

With `Cc1noc(C)c1CSc1ncnc2sc(C)c(C)c12`, the z-score is -0.506.

`Cn1c(Cc2cccc3ccccc23)nnc1SCC(=O)N1CCN(c2ccccc2)CC1` had a z-score of -0.22.

In turn, `COc1ccc(CCNC(=O)C2CCN(S(=O)(=O)c3ccc(OC)c(OC)c3)CC2)cc1` showed a z-score of -0.362.

The compound `COc1cc(/C=N/NC(=O)CCN2CCN(Cc3ccccc3)CC2)cc(OC)c1OC` gave a z-score of -0.854.

Regarding `Cc1ccc(OCC(=O)Nc2ccc(C)c(S(=O)(=O)N3CCCCC3)c2)c([N+](=O)[O-])n1`, the z-score was active: 6.89.

For the compound `CCCNC(=O)CSc1nc(-c2cccs2)cc(C(F)(F)F)n1`, the z-score was -0.0921.
